Here are results for 4 sequences from patent US20060045883A1, “Anti-cancer vaccines” (priority 2004, published 2006).

Like-named read-outs stand apart in the source and are kept apart here.

In one assay the test system is T2 cells. Kind of assay: Peptide-specific cytotoxicity of peptide-elicited CTL lines against peptide-loaded T2 cells. The note with it: T2 cells loaded with the same peptide; 4-hr assay, varying E:T. Here is the method: CTL cytotoxicity assay. A semiautomated minicytotoxicity assay was used to determine specific lysis as described previously (Molldrem, 2000; Molldrem et al., 1996). Briefly, effector cells were prepared in doubling dilutions from 6×10^3 to 25×10^3 cells/well and were plated in 40 μl, 60-well Terasaki trays (Robbins Scientific, Sunnyvale, Calif., USA) with six replicates per dilution. Target cells (T2 cells, marrow-derived leukemic cells, or BM from a healthy donor) at a concentration of 2×10^6 cells/ml were stained with 10 μg/ml of Calcein-AM (Molecular Probes Inc.) for 60 min at 37° C. After washing three times in CM plus 10% AB, target cells were resuspended at 10^5 cells/ml, and 10^3 target cells in 10 μl medium were added to each well containing effector cells. Wells with target cells alone and medium alone were used for maximum (max) and minimum (min.) fluorescence emission, respectively. After 4 hr incubation at 37° C. in 5% CO2, 5 μl FluoroQuench (One Lambda Inc., Canoga Park, Calif., USA) was added to each well, and the trays were centrifuged for 1 min at 60 g before measurement of fluorescence using an automated CytoFluor II plate reader (PerSeptive Biosystems, Framingham, Mass., USA). The percentage of lysis was calculated as follows: % lysis={1−[(mean experimental mission−mean min.)/(mean max−mean min.)]}×100%.
Induction of Primary CTL responses to peptides. These peptides were next used to stimulate T cells specific for peptide-coated targets. PBMC from a normal healthy donor heterozygous for HL-A2.1 were stimulated with peptide-pulsed T2 cells. The T2 cell line has been used by others as an antigen presenting cell for the generation of peptide-specific CTL. Briefly, T2 cells (which co-express the costimulatory molecule B7.1) were washed 3 times in serum-free RPMI culture media supplemented with penicillin/streptomycin and glutamine (CM) and incubated with peptide at 20 μg/mL for 2 hr in CM.
The five MPO peptides discussed above, were used to stimulate T cells specific for peptide-coated targets. […]

For assay [1], the system named is PBMC from an HLA-A2.1+ healthy donor. The note with it: for tetramer staining decay t1/2: 4° C., BB7.2 present.

As to LIQPFMFRL [MY5], the “peptide-specific lysis by CTL line generated against the peptide” value (“peptide-specific lysis” for short) with T2 cells is reported as “No peptide specific CTL lines could be elicited”.

LLSYFKQPV [MY3]: the “peptide-specific lysis” value in the assay on T2 cells was “No peptide specific CTL lines could be elicited”.

For the sequence SLWRRPFNV [MY1], in the assay on T2 cells, the “peptide-specific lysis” value was “No peptide specific CTL lines could be elicited”.

Turning to VLQELNVTV [PR1], the “fold longer t1/2, CTL elicited with 0.2 μM vs 20 μM PR1” value in assay [1] is 3 fold. Further, the “high intensity PR1/HLA-A2 tetramer-staining CTL elicited” value in assay [1] (0.2 μM PR1, weekly stimulation for 28 days) was 1.3%. Moreover, the “low avidity PR1-specific CTL elicited” value in assay [1] (20 μM PR1, weekly stimulation for 28 days) is 3.1%. In addition, the “bulk culture CTL double-positive for anti-CD8 and PR1-tetramer” value in assay [1] (32 day-old PR1-stimulated CTL culture) was determined as 4.3%. Moreover, the “median channel of fluorescence (MCF) of tetramer staining” value in assay [1] (CTL elicited with 0.2 μM PR1) was 293; in assay [1] (CTL elicited with 2 μM PR1), 211; in assay [1] (CTL elicited with 20 μM PR1), 93. In addition, the “tetramer staining decay t1/2” value in assay [1] (PR1-CTL elicited with 0.2 μM PR1) is reported as 58 min; in assay [1] (PR1-CTL elicited with 20 μM PR1), 19 min. Moreover, the “fraction of CTL line specific for PR1 (PR1-tetramer+ CD8+)” value in assay [1] (day 17 CTL line elicited against PR1) was 2.4%. In assay [1] (stimulation with ≦0.02 μM PR1), the PR1-CTL induced is given as under 0.1%.
